In article PMC4336329 (PLoS ONE, 2015):
Out of some 310,000 compounds screened, about 14,000 (4.5%) showed an effect of 50% or more. The effect is printed as a negative number. Some of the results follow.

The molecules below were run against human ether-à-go-go-related gene (hERG) potassium channel (human, UniProt Q12809) (assay: primary screen, population patch clamp on CHO cells stably expressing hERG).
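Further: peak tail current of the secondary pulse compared with the same well before compound.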

Sequence of human ether-à-go-go-related gene (hERG) potassium channel (Q12809 whole entry, looked up): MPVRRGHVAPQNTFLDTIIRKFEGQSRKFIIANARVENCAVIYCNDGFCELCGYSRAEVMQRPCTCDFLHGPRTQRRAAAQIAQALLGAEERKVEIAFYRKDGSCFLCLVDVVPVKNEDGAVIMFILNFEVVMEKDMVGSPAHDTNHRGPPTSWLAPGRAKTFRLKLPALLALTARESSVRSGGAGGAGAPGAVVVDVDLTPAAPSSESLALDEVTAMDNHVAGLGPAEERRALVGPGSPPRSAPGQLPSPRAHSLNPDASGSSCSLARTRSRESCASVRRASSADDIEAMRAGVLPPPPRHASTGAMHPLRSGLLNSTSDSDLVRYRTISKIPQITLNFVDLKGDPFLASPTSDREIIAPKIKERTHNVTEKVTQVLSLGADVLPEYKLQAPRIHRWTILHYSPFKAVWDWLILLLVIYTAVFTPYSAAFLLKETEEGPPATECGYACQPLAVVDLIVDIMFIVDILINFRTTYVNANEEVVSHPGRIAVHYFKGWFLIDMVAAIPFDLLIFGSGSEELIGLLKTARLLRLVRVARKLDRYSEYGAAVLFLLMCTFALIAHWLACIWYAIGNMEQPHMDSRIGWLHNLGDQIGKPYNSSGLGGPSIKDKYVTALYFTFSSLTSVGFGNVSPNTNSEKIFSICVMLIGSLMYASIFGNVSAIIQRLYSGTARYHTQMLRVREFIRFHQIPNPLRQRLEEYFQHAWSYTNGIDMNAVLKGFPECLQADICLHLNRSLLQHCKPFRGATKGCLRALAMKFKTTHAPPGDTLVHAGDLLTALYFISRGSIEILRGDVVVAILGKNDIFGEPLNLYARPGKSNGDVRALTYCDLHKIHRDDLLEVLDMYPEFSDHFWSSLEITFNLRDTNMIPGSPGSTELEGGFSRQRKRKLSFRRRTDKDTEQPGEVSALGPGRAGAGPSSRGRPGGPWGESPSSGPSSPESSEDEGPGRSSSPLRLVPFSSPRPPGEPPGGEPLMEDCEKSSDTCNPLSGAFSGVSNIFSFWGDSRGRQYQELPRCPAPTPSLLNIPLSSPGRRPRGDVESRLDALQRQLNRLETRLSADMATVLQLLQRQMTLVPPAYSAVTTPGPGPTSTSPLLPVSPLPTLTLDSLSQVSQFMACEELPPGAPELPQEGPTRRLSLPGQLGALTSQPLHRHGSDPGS

SMILES | hERG current change (%, negative = inhibition) at 10uM
O=C(Nc1cccc(-c2nc3ncccc3o2)c1)c1cc2ccccc2o1 | -23.1%
O=C(Nc1c(Cl)cc(Cl)cc1C(=O)NCCN1CCOCC1)c1ccc(Cl)cc1Cl | -24.9%
COc1ccccc1NC(C#N)c1ccccc1OCc1ccccc1 (stereo not shown) | 24.8%
COc1cc(C(=O)Nc2ccc(Br)cc2C(=O)c2ccccc2)cc(OC)c1OC | 12.4%
CCN(CC)CCn1c(NC(=O)c2ccc(C(F)(F)F)cc2)nc2ccccc21 | -25.7%
N#C/C(=C\c1cccs1)C(=O)NCc1ccco1 | -2.84%
O=C(OCc1c(Cl)cccc1Cl)c1cnccn1 | 15.4%
CCn1c(SCC(=O)NNC(=O)c2ccc(OC)cc2)nnc1C1CC1 | 26.4%
CC(C)C(C(=O)NCc1ccco1)N(C(=O)CNS(=O)(=O)c1ccccc1)C1CCCC1 (stereo not shown) | 9.1%
COc1ccc(/C=C/C(=O)N2CCN(c3ccccn3)CC2)c2ccccc12 | -17.1%
O=C(NC1CCCCC1)N(C1=NCCCCC1)c1ccc(Br)cc1 | -5.93%
Cc1cc(C)cc(N2Cc3ccccc3C2)c1 | -2.17%
COc1cc(/C=C/C(=O)OCC(=O)NCc2cccs2)ccc1OC(F)F | 2.88%
OC(C#CCN1CCCC1)c1ccccc1 (stereo not shown) | -2.28%
O=C1NC(c2ccccc2)CCC1(Cl)Cl (stereo not shown) | 6.57%
O=C(NCCc1c[nH]c2ccccc12)c1cncc(Br)c1 | 24.5%
O=[N+]([O-])c1ccc(-n2nnnc2-c2ccccc2)cc1 | -21.3%
Cc1c(NC(=O)c2cc(-n3cnnc3)ccc2Cl)cccc1-c1nc2ccccc2o1 | -3.33%
CCN1CCN(c2ccc(S(=O)(=O)N3CCOCC3)cc2NC(=O)/C=C/c2ccc([N+](=O)[O-])cc2)CC1 | -71.8%
Fc1ccccc1NC(=S)N(CCCN1CCOCC1)Cc1cccnc1 | -4.08%
Fc1ccc(-c2csc(N3CCOCC3)n2)cc1 | 10.5%
Fc1ccccc1Nc1nc(-c2ccncc2)nc2ccccc12 | 13%

SMILES | hERG current change (%, negative = inhibition) at 10uM
O=C(CCSc1ccc(Br)cc1)Nc1cccnc1 | -17.7%
COc1ccc(NC2(C#N)CCCCC2)cc1 | 9.75%
CCOc1ccc(NS(=O)(=O)c2ccc(OCC)c3ncccc23)cc1 | 1.24%
COc1cccc(/C=C2\CC(C)Cc3c2nc2ccccc2c3C(=O)O)c1OC (stereo not shown) | 25.7%
C=CCOc1ccc(/C=C/C(=O)OCC(=O)N2CCC(c3ccccc3)=N2)cc1 | 4.97%
Cc1ccc(NC(=O)COC(=O)Cc2ccsc2)c(C)c1 | 4.63%
COc1cc(CN(CCN(C)C)Cc2ccccc2)ccc1OCc1ccccc1.O=C(O)C(=O)O | -31%
CN1C(=O)C(CC(=O)NC2CCCCC2)SC1=Nc1ccccc1 (stereo not shown) | -21.6%
CC(C)CCOP(=O)(c1ccc(N(C)C)cc1)C(O)c1ccc(Cl)cc1Cl (stereo not shown) | 0.259%
CCN(CC)C(=O)CSc1nnc(CSc2ncccn2)n1C | 3.28%
COC(=O)c1[nH]c2ccccc2c1NC(=O)C(C)N1CC(C)OC(C)C1 (stereo not shown) | 5.31%
CC(C)N(C(=O)c1sc2cc([N+](=O)[O-])ccc2c1Cl)C(C)C | -13.4%
NS(=O)(=O)c1ccc(CCNC(=O)c2ccco2)cc1 | -8.99%
COc1ccnc(Oc2ccccc2)c1C(=O)N/C=N/OCc1ccccc1F | -20.7%
CN(C)C=O.Cc1ccc2nc(SCC(=O)c3c(N)n(C)c(=O)n(C)c3=O)[nH]c2c1 | 6.78%
CCOc1ccccc1CNC(=O)c1ccc2nc(N3CCOCC3)sc2c1 | -47.5%
COc1ccc(-c2nc(C#N)c(NCc3cccnc3)o2)cc1OC | -26.1%
COc1ccc(C)cc1S(=O)(=O)Nc1ccc(-n2c(C)nc3ccccc3c2=O)cc1 | -44.3%
COc1ccc(CN2CCC(CO)(CCOc3ccccc3)CC2)cc1C | -81.8%
CSc1ccccc1NC(=O)CN(C)C(=O)C1CC(=O)N(C(C)c2ccccc2)C1 (stereo not shown) | -0.715%
COc1cccc(N2CCN(S(=O)(=O)c3ccc4c(c3)NC(=O)CS4)CC2)c1 | 32.5%
CCCNC(=O)Nc1ccc2c(c1)nc(C)n2C | -2.32%

SMILES | hERG current change (%, negative = inhibition) at 10uM
O=C(CSc1ccc(-c2cccs2)nn1)N1CCCCCC1 | -15.2%
Clc1cccc(OCCOCCN2CCNCC2)c1Cl.O=C(O)C(=O)O | -8.19%
Cc1cccc(C)c1NC(=S)N(Cc1ccco1)C1CCN(C(C)C)CC1 | -4.72%
Cc1nc2c(o1)CCc1ccccc1C2O (stereo not shown) | 5.53%
CCC(C)N1C(=O)/C(=C/c2c(NCCCOC(C)C)nc3c(C)cccn3c2=O)SC1=S (stereo not shown) | -1.63%
Cc1csc(SCc2ccc(C(=O)O)cc2)n1 | -4.67%
CC(=O)Oc1cc2c(C(=O)NCCCN3CCOCC3)c(C)oc2c2ccccc12 | -18.2%
O=S(=O)(NC1CCCC1)c1ccccc1Br | -0.214%
CC(C)Oc1ccc(C(=O)Nc2c3c(nn2-c2ccccc2)CS(=O)(=O)C3)cc1 | -65.9%
COc1ccc2c(c1)CC/C(=C\Nc1ccc3c(c1)OCO3)C2=O | 11.3%
CN(C)S(=O)(=O)c1ccc(N2CCCC2)c(C(=O)NNC(=O)c2ccccc2)c1 | -8.32%
CC(C)=CCN1CCN(CCCc2ccccc2)CC1CCO (stereo not shown) | -26.8%
Cc1ccsc1CNCC(O)c1ccccc1.Cl (stereo not shown) | 9.66%
COc1cc(C2CC(=O)N(CC(=O)NCC3CCCO3)c3ccccc3S2)cc(OC)c1OC (stereo not shown) | 15.4%
O=S(=O)(c1ccccc1Oc1ccc(Cl)cc1Cl)N1CCCCC1 | 4.09%
CCOC(=O)C1(C)C=C(Nc2ccc(NC(C)=O)cc2)C(=O)N1c1ccc(NC(C)=O)cc1 (stereo not shown) | 12.2%
COc1ccc2c(c1)CCc1c(C(=O)N3CCOCC3)noc1-2 | -19.7%
CC(C)CC(=O)Nc1nnc(SCC(=O)NC2CCCCC2)s1 | 21.5%
CCOC(=O)N1CCN(C(=O)C(NS(=O)(=O)c2cccc3nsnc23)c2ccccc2)CC1 (stereo not shown) | -47.1%
O=C(CCCn1c(=S)[nH]c2ccsc2c1=O)Nc1ccc2c(c1)OCO2 | 17.2%
Cc1ccc(-c2noc(CCC(=O)NCc3ccc4c(c3)OCO4)n2)cc1 | 15.7%
O=C(CCCCn1c(=O)[nH]c2ccccc2c1=O)N1CCN(c2ncccn2)CC1 | -0.772%

SMILES | hERG current change (%, negative = inhibition) at 10uM
COC(=O)CNC(=O)Cn1c(=O)n(Cc2ccc(F)cc2)c(=O)c2sccc21 | 2.77%
O=C(CSc1ccccn1)Nc1ccc(NC(=O)CSc2ccccn2)cc1 | 12%
O=C(COC(=O)c1ccc2c(c1)OCCO2)NCCC1=CCCCC1 | -10.8%
Cl.O=C(CSc1nnc(-c2ccccc2)n1C1CCCCC1)Nc1ccc(S(=O)(=O)Nc2ccccn2)cc1 | -5.23%
Cc1ccc(-c2c3c(=O)n(C)c(=O)n(C)c3cn2Cc2ccccc2)cc1 | -27.5%
CCc1nn(CC(=O)NCCCc2ccccc2)c(=O)c2cc3c(OC)cccc3n12 | 8.86%
CC(C)c1nc2cc(Cl)ccc2n(Cc2ccccc2)c1=O | 24.6%
CN(C)CCCNC(=O)Cc1ccc(Br)cc1 | 3.78%
CC1CN(c2nc(-c3ccccc3)nnc2-c2ccccc2)CC(C)O1 (stereo not shown) | -9.96%
COc1ccc(-n2c(COc3cccc(C)c3)nnc2SCC(=O)NCc2ccco2)cc1 | -2.73%
CCc1cc(C(=O)O)c(NC(=O)c2cc(OC)c(OC)c(OC)c2)s1 | 10.5%
O=C1NC(=O)/C(=C\c2ccc(Br)o2)S1 | 21%
Cc1ccc(CNC(=O)C(=O)NCC2OCCN2S(=O)(=O)c2ccc3c(c2)OCCO3)cc1 (stereo not shown) | -11.3%
O=[N+]([O-])c1c(NCCO)cc(N2CCC3(CC2)OCCO3)c2nonc12 | -5.06%
CC(C(=O)NCCCc1ccccc1)c1ccc([N+](=O)[O-])cc1 (stereo not shown) | -37%
CN(C)C(=O)C[n+]1ccc(/C=N/O)cc1 | 14.3%
O=C(CN1CCN(S(=O)(=O)/C=C/c2ccccc2)CC1)NC(=O)NCc1ccco1 | -40.3%
Cc1nc2ccccn2c1C(=O)N/N=C/c1ccc2c(c1)OCO2 | -2.14%
CC(C)(C)NC(=O)NC(=O)COc1ccccc1C#N | 19.4%
CC(Oc1ccc(Cl)cc1Cl)C(=O)NC(=S)N1CCc2ccccc21 (stereo not shown) | 7.94%
Cc1ccc(N(C(=O)Cc2cccs2)C(C(=O)NC2CCCCC2)c2ccccn2)cc1C (stereo not shown) | -11.9%
COc1ccccc1NS(=O)(=O)c1c(C)nc2sccn2c1=O | -15.1%
